# Data taken from patent US20060154902A1, “Shortening of hospital stay and improving survival in patients with chronic kidney disease” (priority 2002, published 2006).
# Experiments:
# [1] = tested on: patients receiving chronic renal replacement therapy; details: in vivo
# [2] = tested on: adult patients, new to hemodialysis; test: Historical cohort of hemodialysis patients: hospitalization outcomes (hospital days per year, hospitalizations per year); type: in vivo, human; details: for median annual hospitalizations / median days in the hospital per year: historical cohort of 11,340 hemodialysis patients, 35-month period; for median annual hospitalizations: No D group 3; for median days in the hospital per year: No D group 15; for more hospital days per year in the No D group compared to the treated group / more annual hospitalizations in the No D group compared to the treated group: negative binomial regression, FIG. 3 / FIG. 4; for more hospital days per year in the No D group compared to the treated group: p<0.0001; for more annual hospitalizations in the No D group compared to the treated group: p<0.006 (calcitriol), p<0.0001 (paricalcitol)
# Text: Vitamin D modulates cell differentiation and proliferation in the cardiovascular and immune system, and in various malignant and pre-malignant tissues. […] Patients entered the cohort at any time. Vitamin D use was defined by the administration of at least doses of a Vitamin D product. Hospitalizations were identified by documented hospitalized absences from the dialysis clinic and were standardized by patient observation period. ANOVA or Chi-Square tests were used to evaluate differences in baseline characteristics. Univariate tests and negative binomial regression models were used to evaluate hospitalization outcomes: hospital days per year and hospitalizations per year. […] There was no difference for baseline phosphorus. […] However, compared to the paricalcitol group, the No D group experienced 30% more annual hospitalizations and 100% more days per year in the hospital (p<0.0001 for both)(as shown in FIG. 4).
SMILES,mean serum calcium and phosphorus between calcitriol and paricalcitol patient groups [1],median annual hospitalizations [2],median days in the hospital per year [2] [days per year],more hospital days per year in the No D group compared to the treated group [2] [%],more annual hospitalizations in the No D group compared to the treated group [2] [%],hospitalizations and days in the hospital compared with the other groups ([2]; paricalcitol vs calcitriol vs No D)
C=C1/C(=C\C=C2/CCC[C@]3(C)[C@@H]([C@H](C)CCCC(C)(C)O)CC[C@@H]23)C[C@@H](O)C[C@@H]1O [calcitriol],no significant difference,2,11,59,17,–
C[C@H](/C=C/[C@H](C)C(C)(C)O)[C@H]1CC[C@H]2/C(=C/C=C3C[C@@H](O)C[C@H](O)C3)CCC[C@]12C [paricalcitol],no significant difference,2,5,100,30,fewest hospitalizations and days in the hospital
